Inconclusive means that the source gave no clear call. Such entries were picked first, then a sample of the others. For some assays here: Where the call is inconclusive, the potency comes from a doubtful curve fit. Active and inactive are the calls of the source. Unless noted, calls come from the whole dose curve; as a rule, active = well fitted curve in the direction sought with a large enough effect in the repeat runs; inconclusive = weak or mixed curves; inactive = no such curve, though single readings can be large; an effect the other way counts as inactive or inconclusive.
Molecular target: Peroxisome proliferator-activated receptor gamma (Homo sapiens) (UniProt P37231)
Assay: qHTS assay to identify small molecule antagonists of the peroxisome proliferator-activated receptor gamma (PPARg) signaling pathway (AID 743191; calls by dose curve; note: nearly all actives have a fitted effect of over 30% in size; note: potency is the fitted concentration of half-maximal effect)
Details: HEK293H PPARg-UAS-bla, beta-lactamase ratio, antagonist, 17 h; ratio activity, negative = inhibition: at 62.6 µM (top of the series) unless noted
How it was run: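 GeneBLAzer PPARg UAS-bla HEK293H cells carrying a UAS-driven beta-lactamase reporter were plated at 3000 cells/well, preincubated 5 h at 37C, then given compound for 17 h at 37C; LiveBLAzer B/G FRET substrate was read after 1 h at room temperature.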
% is set by controls: 0 for no effect and ±100 for the full control effect; tags give direction and shape of the fitted curve or compound fluorescence and quenching.

UniProt P37231, sequence (P37231 whole entry, looked up): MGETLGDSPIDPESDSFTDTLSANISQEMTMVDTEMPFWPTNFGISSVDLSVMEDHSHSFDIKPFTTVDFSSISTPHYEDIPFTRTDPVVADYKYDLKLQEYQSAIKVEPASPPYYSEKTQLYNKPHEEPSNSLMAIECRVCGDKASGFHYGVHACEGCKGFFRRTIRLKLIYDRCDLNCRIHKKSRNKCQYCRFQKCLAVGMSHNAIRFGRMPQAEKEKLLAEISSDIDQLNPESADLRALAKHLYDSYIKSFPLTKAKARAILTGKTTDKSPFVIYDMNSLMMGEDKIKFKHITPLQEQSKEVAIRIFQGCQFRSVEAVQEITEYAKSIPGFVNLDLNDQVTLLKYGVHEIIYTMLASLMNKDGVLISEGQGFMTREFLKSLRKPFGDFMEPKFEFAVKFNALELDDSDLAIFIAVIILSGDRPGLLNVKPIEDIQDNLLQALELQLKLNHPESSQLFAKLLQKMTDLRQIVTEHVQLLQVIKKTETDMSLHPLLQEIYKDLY

SMILES | ratio activity, negative = inhibition | Potency
ClCc1ccccc1 | inconclusive: 0.957% | –
NP(N)(=O)NC(=O)c1ccc(F)cc1 | inconclusive: 7.23% | –
CC1(C)[C@H](C=C(Cl)Cl)[C@@H]1C(=O)O[C@@H](C#N)c1cccc(Oc2ccccc2)c1 | inconclusive: 1.84% | –
N#CC(Br)Br | inconclusive: 13.3% | –
CC(C)C#N | – | inconclusive: 58.4 µM [rising, single point]
CN(C)CCC#N | inconclusive: -11% [at 81.1 µM] | –

System: not listed separately
Assay: qHTS assay to identify small molecule antagonists of the peroxisome proliferator-activated receptor gamma (PPARg) signaling pathway - cell viability counter screen (AID 743194); note: nearly all actives have a fitted effect of over 55% in size; note: potency is the fitted concentration of half-maximal effect
Details: PPARg-bla HEK293H viability, CellTiter-Glo luminescence, 17 h; Potency: co-treated with 50 nM rosiglitazone unless noted; activity change, negative = cytotoxicity: at 62.6 µM (top of the series), co-treated with 50 nM rosiglitazone unless noted
How it was run: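 PPARg-UAS-bla HEK293H cells were plated, rested 5 h at 37 C, then treated with compounds plus rosiglitazone (50 nM final) for 17 h at 37 C; viability was then read by CellTiter-Glo luminescence after 30 min at room temperature.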

SMILES | Potency | activity change, negative = cytotoxicity
Oc1ccc2[nH]cc(CCCCN3CC=C(c4ccccc4)CC3)c2c1 | inconclusive: 119 nM [cytotoxic, full curve, poor fit] | –
CCCCCCCCCCCCCCCCCC(=O)O | inactive | –
CCCSP(=O)(OCC)SCCC | inconclusive: 71000 nM [rising, partial curve, poor fit] | –
CCCCCCCCC(=O)NCc1ccc(O)c(OC)c1 | inconclusive: 49 nM [cytotoxic, full curve, poor fit] | –
c1ccc(-c2cccc(-c3ccccc3)c2)cc1 | inconclusive: 49500 nM [cytotoxic, single point] | –
O=[N+]([O-])O.O=[N+]([O-])O.[Cd] | active: 155 nM | –
NC(=S)Nc1ccccc1 | inconclusive: 78.9 nM [rising, full curve, poor fit] | –
COc1ccc(C=O)cc1 | inactive | –
O=[N+]([O-])c1ccc(Cl)c(Cl)c1 | inconclusive: 5500 nM [rising, full curve, poor fit] | –
O=C1CC(=O)NC(=O)N1 | – | inactive: -1.74%
O=Cc1ccco1 | inconclusive: 275 nM [rising, partial curve, poor fit] | –

System: not listed separately
Assay: qHTS assay for small molecule agonists of the antioxidant response element (ARE) signaling pathway (AID 743202; active = well fitted activation curve with a large enough effect in the signal ratio in the repeat runs, not every such curve was filed as active; inconclusive = weak or mixed curves, or effect the other way; inactive = no such curve, though single readings can be large or run the other way; the % refers to the signal ratio; note: potency is the fitted concentration of half-maximal effect)
Details: HepG2 ARE-bla reporter, beta-lactamase FRET, 16 h; activation: at 73.3 µM (top of the series) unless noted
How it was run: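 Following a 16 h, 37 C exposure of reporter HepG2 cells (ARE-driven beta-lactamase, 2,000 cells/well) to compounds, FRET substrate was applied for 2 h at room temperature and fluorescence intensity recorded.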

SMILES | activation | Potency
Oc1ccc2[nH]cc(CCCCN3CC=C(c4ccccc4)CC3)c2c1 | inconclusive: -5.16% | –
CCCSP(=O)(OCC)SCCC | inconclusive: -23.8% [at 94.8 µM] | –
CCCCCCCCC(=O)NCc1ccc(O)c(OC)c1 | – | inconclusive: 33.5 µM
c1ccc(-c2cccc(-c3ccccc3)c2)cc1 | inconclusive: 44% [at 94.8 µM] | –
O=[N+]([O-])O.O=[N+]([O-])O.[Cd] | – | inconclusive: 3.44 µM [falling, full curve]
NC(=S)Nc1ccccc1 | – | inactive
COc1ccc(C=O)cc1 | inconclusive: 33.3% | –
O=[N+]([O-])c1ccc(Cl)c(Cl)c1 | – | inactive
O=C1CC(=O)NC(=O)N1 | inactive: -10.9% | –
O=Cc1ccco1 | inconclusive: 3.53% | –

Same assay, conditions: HepG2 ARE-bla reporter, beta-lactamase FRET, 16 h; at 73.3 µM (top of the series)

SMILES | activation
CCCCCCCCCCCCCCCCCC(=O)O | inconclusive: 15.7%
COc1ccc(C=O)cc1 | inactive: 11.5%
O=Cc1ccco1 | inactive: 5.61%

System: not listed separately
Assay: qHTS assay for small molecule activators of the heat shock response signaling pathway (AID 743210; active = well fitted activation curve with a large enough effect in the signal ratio in the repeat runs, with a control signal flat, not every such curve was filed as active; inconclusive = weak or mixed curves; the % refers to the signal ratio; note: potency is the fitted concentration of half-maximal effect)
Details: HeLa HSE-bla reporter, beta-lactamase ratio, 5 h; activation: at 62.6 µM (top of the series)
How it was run: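 Heat shock element–beta-lactamase HeLa reporter cells; qHTS with compounds for 5 h at 37 C; detection by FRET substrate fluorescence after 2.5 h at RT.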

SMILES | Potency | activation
Oc1ccc2[nH]cc(CCCCN3CC=C(c4ccccc4)CC3)c2c1 | inconclusive: 8.91 µM [activator] | –
CCOC(=O)Nc1cccc(OC(=O)Nc2ccccc2)c1 | – | inactive: -0.37%
O=NN1CCCCCC1 | – | inactive: -1.9%
CCCCCCCCCCCCCl | inconclusive: 59.3 µM [activator] | –

System: not listed separately
Assay: qHTS assay to identify small molecule agonists of the peroxisome proliferator-activated receptor delta (PPARd) signaling pathway - cell viability counter screen (AID 743211); note: nearly all actives have a fitted effect of over 55% in size; note: potency is the fitted concentration of half-maximal effect
Details: PPARd-bla HEK293H viability, CellTiter-Glo luminescence, 17 h; activity change, negative = cytotoxicity: at 62.6 µM (top of the series) unless noted
How it was run: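 Following 5 h plating at 37 C and 5% CO2, PPARd UAS-bla HEK293H cells took up test compounds for 17 h. Viability was quantified by luminescence 30 min after CellTiter-Glo addition at room temperature.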

SMILES | Potency | activity change, negative = cytotoxicity
Oc1ccc2[nH]cc(CCCCN3CC=C(c4ccccc4)CC3)c2c1 | inconclusive: 29.8 µM [cytotoxic, single point] | –
CN1C(=O)NC(=O)C(C)(C2=CCCCC2)C1=O (configuration not stated) | – | inactive: 3.51%
c1ccc(-c2cccc(-c3ccccc3)c2)cc1 | inconclusive: 55.5 µM [cytotoxic, single point] | –
O=[N+]([O-])O.O=[N+]([O-])O.[Cd] | active: 1.95 µM | –
CCC(Cl)CCl (configuration not stated) | – | inactive: -0.517% [at 81.1 µM]
N#CC(Br)Br | inactive | –

Molecular target: Peroxisome proliferator-activated receptor delta (Homo sapiens) (UniProt Q03181)
Assay: qHTS assay to identify small molecule agonists of the peroxisome proliferator-activated receptor delta (PPARd) signaling pathway (AID 743212; calls by dose curve)
Details: HEK293H PPARd-UAS-bla, beta-lactamase FRET ratio, 17 h; activation: at 62.6 µM (top of the series) unless noted
How it was run: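 Beta-lactamase reporter read by fluorescence (LiveBLAzer B/G FRET, 2 h, room temperature). Test agents, in DMSO, incubated at 37 C with PPARd-bla HEK293H cells.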

UniProt Q03181, sequence (Q03181 whole entry, looked up): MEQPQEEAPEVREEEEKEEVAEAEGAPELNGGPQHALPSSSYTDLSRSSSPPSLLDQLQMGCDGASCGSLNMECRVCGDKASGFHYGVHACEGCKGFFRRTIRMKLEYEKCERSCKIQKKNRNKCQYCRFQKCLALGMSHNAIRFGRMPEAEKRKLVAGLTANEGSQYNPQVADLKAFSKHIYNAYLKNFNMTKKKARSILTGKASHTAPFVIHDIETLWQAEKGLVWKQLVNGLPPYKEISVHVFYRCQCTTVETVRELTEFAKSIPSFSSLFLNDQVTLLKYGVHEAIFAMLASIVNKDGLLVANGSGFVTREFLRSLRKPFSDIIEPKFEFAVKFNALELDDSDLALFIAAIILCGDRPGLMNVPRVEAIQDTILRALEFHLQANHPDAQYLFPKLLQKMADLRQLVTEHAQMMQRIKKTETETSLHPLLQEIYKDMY

SMILES | activation | Potency
CC1Sc2c(C(=O)O)c(=O)c3cc(F)c(N4CCNCC4)cc3n21 (configuration not stated) | inactive: 4.11% | –
O=c1[nH]c2ccccc2o1 | inactive: -3.74% | –
NC(=S)Nc1ccccc1 | – | inactive
CCOC(=O)NC(C)(C)Cc1ccc(Cl)cc1 | inactive: 5.2% | –
CN(C)CCC#N | – | inactive

System: not listed separately
Assay: qHTS assay to identify small molecule antagonists of the peroxisome proliferator-activated receptor delta (PPARd) signaling pathway - cell viability counter screen (AID 743213); note: nearly all actives have a fitted effect of over 50% in size; note: potency is the fitted concentration of half-maximal effect
Details: PPARd-bla HEK293H viability, CellTiter-Glo luminescence, 17 h; viability change, negative = cytotoxic: at 62 µM (top of the series) unless noted
How it was run: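 HEK293H cells with the PPARd UAS-bla reporter, co-treated 17 h at 37 C with compounds and L165041 (300 nM final), were lysed with CellTiter-Glo. Luminescence indicated viable cell content.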

SMILES | Potency | viability change, negative = cytotoxic
Oc1ccc2[nH]cc(CCCCN3CC=C(c4ccccc4)CC3)c2c1 | inconclusive: 16.8 µM [cytotoxic, single point] | –
OCC(O)CO | inactive | –
O=C(O)c1cc(Cl)ccc1Cl | – | inactive: -0.69%
CCCSP(=O)(OCC)SCCC | inconclusive: 1.42 µM [cytotoxic, single point] | –
CCCCCCCCC(=O)NCc1ccc(O)c(OC)c1 | inactive | –
Nc1nc(N)c(N)c(N)n1 | – | inactive: 3.09% [at 80.4 µM]
c1ccc(-c2cccc(-c3ccccc3)c2)cc1 | inactive | –
O=[N+]([O-])O.O=[N+]([O-])O.[Cd] | active: 5.49 µM | –
CCOC(=O)c1ccccc1N | inconclusive: 5.49 µM [cytotoxic, single point] | –
NC(=S)Nc1ccccc1 | inactive | –
CCC(Cl)CCl (configuration not stated) | inconclusive: 4.95 µM [rising, full curve] | –
CC(C)C#N | inconclusive: 0.165 µM [rising, partial curve, poor fit] | –

Molecular target: Peroxisome proliferator-activated receptor delta (Homo sapiens) (UniProt Q03181)
Assay: qHTS assay to identify small molecule antagonists of the peroxisome proliferator-activated receptor delta (PPARd) signaling pathway (AID 743215; active = well fitted inhibition curve with a large enough effect in the signal ratio in the repeat runs, not every such curve was filed as active; inconclusive = weak or mixed curves, or effect the other way; inactive = no such curve, though single readings can be large or run the other way; the % refers to the signal ratio;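 note: cells stimulated with agonist L165041 at 300 nM final during compound exposure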; note: potency is the fitted concentration of half-maximal effect)
Details: HEK293H PPARd-UAS-bla, beta-lactamase FRET ratio, antagonist, 17 h; ratio activity, negative = inhibition: at 62 µM (top of the series) unless noted
How it was run: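 Plated HEK293H PPARd-bla cells rested 5 h at 37 C and 5% CO2. Compound, then agonist L165041 at 300 nM final, was added; 17 h at 37 C followed. Substrate loading, 2 h room temperature, fluorescence measured.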

SMILES | ratio activity, negative = inhibition | Potency
CC(=O)CCc1ccc2c(c1)OCO2 | inactive: 17.8% | –
CCOC(=O)c1ccccc1N | – | inconclusive: 6.2 nM [fluorescent, full curve, poor fit]
CCCN(CCC)c1c([N+](=O)[O-])cc(C(C)C)cc1[N+](=O)[O-] | inconclusive: -29% | –
CCCCCCCCCCCCCl | inconclusive: 0.116% [fluorescent] | –
CC(C)C#N | – | inactive

Source: PubChem BioAssay (Tox21)
